Measured values: paper PMC7111190 (Chemistry & Biology, 2008)

Key:
[1] = biological target: the molecule itself; assay: AUC + other: circular dichroism
SEC = biological target: the molecule itself; assay: SEC
GCN4-pVg = assay: SEC

| Binder | stoichiometry N [1] | other results |
| --- | --- | --- |
| MKVKQLEDVVEELLSVNYHLENVVARLKKLVGERGGC (complex, disulfide bond between the C-terminal cysteines of the two chains) [pVg-ss-pVg] | 2 | – |
| MKVKQLEDAVEELLSANYHLENAVARLKKLVGER [GCN4-pAg] | – | stoichiometry N (SEC): 4 |
| MKVKQLVDKVEELLSKNYHLVNEVARLVKLVGER [GCN4-pVe] | – | ratio of the heterotetramer complex to the combined homotetramers (GCN4-pVg): ~50 ratio (to 1) |
| MKVKQLVDKVEELLSKNYHLVNEVARLVKLVGERGGC (complex, disulfide bond between the C-terminal cysteines of the two chains) [pVe-ss-pVe] | 2 | – |
